According to PMC6451091:
The other results are listed elsewhere or left out. For some assays here: At the low end of the ranking the order means little. For some assays here: The protein was read in a cell extract, so binding may be indirect.

The sequences below were run against PU.1 (IVT) (UniProt P17947) (assay: protein-binding microarray (PBM)). Conditions: 20 mM HEPES pH 7.9, 100 mM NaCl, 1 mM DTT, 0.2 mg/mL BSA, 0.02% Triton X-100, 2% milk, 0.4 mg/mL salmon testes DNA; 1 h; temperature not stated; high values mean tight binding; double strand, one strand shown; sequences stand for … in GCCTAGCAC…GTGCTAGGTCTTGATTCGCTTGACGCTGCTG.

Sequence | binding signal [z-score]
AAAAAAAGGAAGTGAGAGCT | 6.29
GATAAGAGGAAGTCCTTTGT | 6.16
GAAGAGAGGAAGTGAAATTG | 5.29
AGAAAAAGGAAGTGACATAC | 6.03
CCAAGGGGGAAGTGAATGTT | 4.49
CAAAAAGGGAAGTGGGGAGA | 6.4
AAAAGGAGGAAGTGATGATG | 6.55
AGAAATGGGAAGTGCCATCC | 5.12
TGAATGAGGAACTGTCAAAC | 4.51
AAAAAGGGGAAGTCAGGGAG | 7.66
AAAATCAGGAAGTGTTTGAG | 6.3
GAAAAGAGGAAGTGTGAGAC | 7.97
CAGATGAGGAAGTGAAGAAC | 5.68
GAAACCAGGAAGTCCCATAG | 3.78
GGAGGAGGGAAGTGGAAAGA | 2.66
GGAAAGGGGAAGTCAGAAAG | 6.32
GAGGAGAGGAAGTGGGGGAG | 3.17
GAATTGAGGAAGTCCTCCCA | 6.34
GAAAACAGGAAGTGCCATAG | 7.41
GCAAACAGGAAGTCCCATAG | 4.67

Sequence | binding signal [z-score]
GGGATGAGGAAGTCTGAAAT | 4.7
GGAGGAGGGAAGTGCTGAGT | 2.42
TCAAACAGGAAGTGTAAATA | 4.93
CGAAAGGGGAAGTGCAAAAC | 7.07
TTTAACAGGAAGTGAAACCA | 4.61
TGAAAGAGGAAGGGCAACCA | 3.15
GAAATCAGGAAGTGTGAATC | 5.57
CCCAAAAGGAAGTGAAGTTG | 2.76
TGTAACAGGAAGTGGAATAA | 4.8
AGGAAAAGGAAGTCTCCCCA | 2.85
AAAATGAGGAAGTGAGATAT | 8.11
GAAAAGAGGAACTGGGTTTA | 7.13
TGAAAGGGGAAGTGGATACT | 6.64
GAGAAGAGGAAATGGTGAGA | 2.65
GAGAAGGGGAAGTAGCGTCT | 5.66
TCAGTGGGGAAGTGCTAGGG | 2.86
TGAAAGAGGAAGTGCAATCA | 7.72
ACCAGGAGGAAGTGGTTGCA | 4.06
TAAAAAAGGAACTGCAATTA | 3.75
GGACTGGGGAAGTGGCCTGG | 2.43

What follows are sequences tested against PU.1 (endogenous, THP-1 nuclear extract) (UniProt P17947) (assay: nuclear extract protein-binding microarray (nextPBM)). Conditions: 20 mM HEPES pH 7.9, 100 mM NaCl, 1 mM DTT, 0.2 mg/mL BSA, 0.02% Triton X-100, 2% milk, 0.4 mg/mL salmon testes DNA; 1 h; temperature not stated; high values mean tight binding; double strand, one strand shown; sequences stand for … in GCCTAGCAC…GTGCTAGGTCTTGATTCGCTTGACGCTGCTG.

Sequence | binding signal [z-score]
AAAAAAAGGAAGTGAGAGCT | 6.55
GATAAGAGGAAGTCCTTTGT | 6.5
GAAGAGAGGAAGTGAAATTG | 5.14
AGAAAAAGGAAGTGACATAC | 6.17
CCAAGGGGGAAGTGAATGTT | 4.47
CAAAAAGGGAAGTGGGGAGA | 6.48
AAAAGGAGGAAGTGATGATG | 6.63
AGAAATGGGAAGTGCCATCC | 5.59
TGAATGAGGAACTGTCAAAC | 4.95
AAAAAGGGGAAGTCAGGGAG | 7.18
AAAATCAGGAAGTGTTTGAG | 6.53
GAAAAGAGGAAGTGTGAGAC | 7.29
CAGATGAGGAAGTGAAGAAC | 6.15
GAAACCAGGAAGTCCCATAG | 4.21
GGAGGAGGGAAGTGGAAAGA | 2.47
GGAAAGGGGAAGTCAGAAAG | 6.82
GAGGAGAGGAAGTGGGGGAG | 3.68
GAATTGAGGAAGTCCTCCCA | 6.64
GAAAACAGGAAGTGCCATAG | 7.11
GCAAACAGGAAGTCCCATAG | 5.7

Sequence | binding signal [z-score]
GGGATGAGGAAGTCTGAAAT | 4.92
GGAGGAGGGAAGTGCTGAGT | 2.47
TCAAACAGGAAGTGTAAATA | 4.97
CGAAAGGGGAAGTGCAAAAC | 6.89
TTTAACAGGAAGTGAAACCA | 7.09
TGAAAGAGGAAGGGCAACCA | 3.49
GAAATCAGGAAGTGTGAATC | 6.2
CCCAAAAGGAAGTGAAGTTG | 2.33
TGTAACAGGAAGTGGAATAA | 5.32
AGGAAAAGGAAGTCTCCCCA | 2.81
AAAATGAGGAAGTGAGATAT | 7.24
GAAAAGAGGAACTGGGTTTA | 7.04
TGAAAGGGGAAGTGGATACT | 6.93
GAGAAGAGGAAATGGTGAGA | 2.62
GAGAAGGGGAAGTAGCGTCT | 6.39
TCAGTGGGGAAGTGCTAGGG | 3.12
TGAAAGAGGAAGTGCAATCA | 7.13
ACCAGGAGGAAGTGGTTGCA | 4.37
TAAAAAAGGAACTGCAATTA | 3.27
GGACTGGGGAAGTGGCCTGG | 2.96
